“And” between values parts separate entries of the source, which are not always exact repeats. Identical values can stand only once. The source gives many values for each of these; only a part stands here.
Experiment: PK of compound of Formula (Ia) after single intramuscular dose of solution formulations in Wistar Han rats
Assay type: in vivo
Details: IM 100 mg/kg
Protocol: Formulations containing the compound of Formula (Ia), or a pharmaceutically acceptable salt thereof, were prepared as solutions and optionally administered subcutaneously or intramuscularly to rats, rabbits, and/or dogs.
A solution of about 400 mg/ml of the compound of Formula (Ia) having 21.13 w/w % water, 45.25 w/w % PEG 300, and 33.61 w/w % of a sodium salt of a compound of Formula (Ia) was prepared. The solution was administered intramuscularly to Wistar Han rats at a dose of about 100 mg/kg and beagle dogs at a dose of about 30 mg/kg.
A solution of about 400 mg/ml of the compound of Formula (Ia) having 19.18 w/w % water, 41.09 w/w % PEG 300, 33.61 w/w % of a sodium salt of a compound of Formula (Ia), and 6.12 w/w % poloxamer 188 was prepared. The solution was administered intramuscularly to Wistar Han rats at a dose of about 100 mg/kg and beagle dogs at a dose of about 30 mg/kg.
(§1) A solution of about 500 mg/ml of the compound of Formula (Ia) having 16.93 w/w % water, 36.22 w/w % PEG 300, 41.85 w/w % of a sodium salt of a compound of Formula (Ia), and 5.00% ethanol was prepared. The solution was administered intramuscularly to Wistar Han rats at a dose of about 100 mg/kg and beagle dogs at a dose of about 30 mg/kg.
as §1, with “14.50” for “16.93”, “31.04” for “36.22”, “(Ia), 5.00% ethanol,” for “(Ia),”, “7.61 w/w % poloxamer 188” for “5.00% ethanol”

**Q.** With CC(C)(C#Cc1ccc(-c2ccc(Cl)c3c(NS(C)(=O)=O)nn(CC(F)(F)F)c23)c([C@H](Cc2cc(F)cc(F)c2)NC(=O)Cn2nc(C(F)(F)F)c3c2C(F)(F)[C@@H]2C[C@H]32)n1)S(C)(=O)=O [compound of Formula (Ia)] as the compound, how does the Plasma concentration (1.00 h, individual rats, solution M, 500 mg/mL) read?
**A.** Its Plasma concentration is 166 nM and 159 nM and 233 nM.

**Q.** And the Plasma concentration (3.00 h, individual rats, solution M, 500 mg/mL)?
**A.** Its Plasma concentration is 432 nM and 353 nM and 530 nM.

**Q.** What about the Plasma concentration (8.00 h, individual rats, solution M, 500 mg/mL) of the same compound?
**A.** The Plasma concentration was 563 nM and 478 nM and 692 nM.

**Q.** And the Plasma concentration (24.0 h, individual rats, solution M, 500 mg/mL)?
**A.** The Plasma concentration was 824 nM and 573 nM and 865 nM.

**Q.** What about the Plasma concentration (48.0 h, individual rats, solution M, 500 mg/mL) of the same compound?
**A.** Its Plasma concentration is 599 nM and 575 nM and 689 nM.

**Q.** And the Plasma concentration (72.0 h, individual rats, solution M, 500 mg/mL)?
**A.** Its Plasma concentration is 179 nM and 519 nM and 480 nM and 527 nM.

**Q.** What about the Plasma concentration (96.0 h, individual rats, solution M, 500 mg/mL) of the same compound?
**A.** Its Plasma concentration is 485 nM and 464 nM and 561 nM.

**Q.** What about the Plasma concentration (168 h, individual rats, solution M, 500 mg/mL) of the same compound?
**A.** Its Plasma concentration is 433 nM and 626 nM and 676 nM.

**Q.** What about the Plasma concentration (Solution H (~400 mg/mL), Wistar Han rats, individual animals #1-#4, 1.00 h) of the same compound?
**A.** Its Plasma concentration is 104 nM and 205 nM and 76.2 nM and 213 nM.

**Q.** And the Plasma concentration (Solution H (~400 mg/mL), Wistar Han rats, individual animals #1-#4, 3.00 h)?
**A.** The Plasma concentration was 314 nM and 168 nM and 320 nM.

**Q.** And the Plasma concentration (Solution H (~400 mg/mL), Wistar Han rats, individual animals #1-#4, 8.00 h)?
**A.** The Plasma concentration was 216 nM and 380 nM (2×) and 164 nM.

**Q.** And the Plasma concentration (Solution H (~400 mg/mL), Wistar Han rats, individual animals #1-#4, 24.0 h)?
**A.** The Plasma concentration was 340 nM and 473 nM and 265 nM and 677 nM.

**Q.** And the Plasma concentration (Solution H (~400 mg/mL), Wistar Han rats, individual animals #1-#4, 48.0 h)?
**A.** Its Plasma concentration is 586 nM and 346 nM and 596 nM.

**Q.** What about the Plasma concentration (Solution H (~400 mg/mL), Wistar Han rats, individual animals #1-#4, 72.0 h) of the same compound?
**A.** The Plasma concentration was 343 nM and 400 nM and 281 nM and 564 nM.

**Q.** And the Plasma concentration (Solution H (~400 mg/mL), Wistar Han rats, individual animals #1-#4, 96.0 h)?
**A.** Its Plasma concentration is 415 nM and 534 nM and 305 nM and 655 nM.

**Q.** What about the Plasma concentration (Solution H (~400 mg/mL), Wistar Han rats, individual animals #1-#4, 168 h) of the same compound?
**A.** Its Plasma concentration is 599 nM and 547 nM and 314 nM and 892 nM.

**Q.** What about the Plasma concentration (Solution J (~400 mg/mL, poloxamer 188), Wistar Han rats, individual animals #1-#4, 1.00 h) of the same compound?
**A.** The Plasma concentration was 230 nM and 199 nM and 149 nM and 418 nM.

**Q.** And the Plasma concentration (Solution J (~400 mg/mL, poloxamer 188), Wistar Han rats, individual animals #1-#4, 3.00 h)?
**A.** Its Plasma concentration is 450 nM and 312 nM and 554 nM.

**Q.** And the Plasma concentration (Solution J (~400 mg/mL, poloxamer 188), Wistar Han rats, individual animals #1-#4, 8.00 h)?
**A.** Its Plasma concentration is 539 nM and 426 nM and 555 nM.

**Q.** What about the Plasma concentration (Solution J (~400 mg/mL, poloxamer 188), Wistar Han rats, individual animals #1-#4, 24.0 h) of the same compound?
**A.** The Plasma concentration was 514 nM and 475 nM and 669 nM.

**Q.** What about the Plasma concentration (Solution J (~400 mg/mL, poloxamer 188), Wistar Han rats, individual animals #1-#4, 48.0 h) of the same compound?
**A.** Its Plasma concentration is 421 nM and 535 nM and 558 nM.

**Q.** And the Plasma concentration (Solution J (~400 mg/mL, poloxamer 188), Wistar Han rats, individual animals #1-#4, 72.0 h)?
**A.** The Plasma concentration was 380 nM and 458 nM and 442 nM.

**Q.** What about the Plasma concentration (Solution J (~400 mg/mL, poloxamer 188), Wistar Han rats, individual animals #1-#4, 96.0 h) of the same compound?
**A.** The Plasma concentration was 398 nM and 474 nM and 466 nM.

**Q.** And the Plasma concentration (Solution J (~400 mg/mL, poloxamer 188), Wistar Han rats, individual animals #1-#4, 168 h)?
**A.** Its Plasma concentration is 526 nM and 409 nM and 450 nM.

**Q.** And the Plasma concentration (Solution K (~500 mg/mL, ethanol), Wistar Han rats, individual animals #1-#4, 1.00 h)?
**A.** Its Plasma concentration is 214 nM and 61.9 nM and 173 nM and 135 nM.

**Q.** And the Plasma concentration (Solution K (~500 mg/mL, ethanol), Wistar Han rats, individual animals #1-#4, 3.00 h)?
**A.** The Plasma concentration was 261 nM and 127 nM and 207 nM and 240 nM.

**Q.** And the Plasma concentration (Solution K (~500 mg/mL, ethanol), Wistar Han rats, individual animals #1-#4, 8.00 h)?
**A.** The Plasma concentration was 297 nM and 126 nM and 231 nM and 219 nM.

**Q.** And the Plasma concentration (Solution K (~500 mg/mL, ethanol), Wistar Han rats, individual animals #1-#4, 24.0 h)?
**A.** Its Plasma concentration is 245 nM and 416 nM and 345 nM.

**Q.** And the Plasma concentration (Solution K (~500 mg/mL, ethanol), Wistar Han rats, individual animals #1-#4, 48.0 h)?
**A.** The Plasma concentration was 282 nM and 436 nM and 347 nM.

**Q.** What about the Plasma concentration (Solution K (~500 mg/mL, ethanol), Wistar Han rats, individual animals #1-#4, 72.0 h) of the same compound?
**A.** Its Plasma concentration is 403 nM and 495 nM and 319 nM.

**Q.** What about the Plasma concentration (Solution K (~500 mg/mL, ethanol), Wistar Han rats, individual animals #1-#4, 96.0 h) of the same compound?
**A.** The Plasma concentration was 337 nM and 427 nM and 301 nM.

**Q.** And the Plasma concentration (Solution K (~500 mg/mL, ethanol), Wistar Han rats, individual animals #1-#4, 168 h)?
**A.** The Plasma concentration was 422 nM and 609 nM and 359 nM.

— patent US11807625B2, “Capsid inhibitors for the prevention of HIV” (Gilead Sciences, Inc., priority 2019, dated 2023)
